Laboratory results: the BET-seq Pho4 binding data (Le et al. 2018)
This is one part of the list. Values were computed here from the reads of four pooled replicates and scatter widely.

biological target: T1, Pho4 (S. cerevisiae) (UniProt P07270); assay: relative binding free energy (BET-seq); higher = weaker binding; details: reference: library average
T1 sequence: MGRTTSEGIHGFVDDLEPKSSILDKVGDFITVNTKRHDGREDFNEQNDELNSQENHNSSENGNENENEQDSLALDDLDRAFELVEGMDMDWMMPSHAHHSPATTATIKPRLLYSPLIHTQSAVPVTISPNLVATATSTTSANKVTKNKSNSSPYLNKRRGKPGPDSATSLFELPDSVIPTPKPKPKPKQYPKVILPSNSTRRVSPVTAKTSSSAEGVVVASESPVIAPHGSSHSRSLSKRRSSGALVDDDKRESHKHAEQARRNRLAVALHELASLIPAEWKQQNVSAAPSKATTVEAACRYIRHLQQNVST

Relative binding free energy, 0.03 kcal/mol:
TGTCGCACGTGGAGTT
TTTTGCACGTGTTTAC
GGTAGCACGTGTGACT

Relative binding free energy, 0.04 kcal/mol:
TTTTCCACGTGTTGAT
AGTGACACGTGATGGA
TTTCGCACGTGTGGGT
ATAGGCACGTGAAAGT
TGAATCACGTGGGATT
GTGCGCACGTGGAAGT
TTGGTCACGTGGTCAC

Relative binding free energy, -0.09 kcal/mol:
TTGCGCACGTGGCTAG
CTGAGCACGTGGTATG
TTGTCCACGTGGGGTT

Relative binding free energy, 0.12 kcal/mol:
GGGGTCACGTGTATTG
CGTGACACGTGGTGGA
TGTAACACGTGTGGGT
TTAATCACGTGTTGGT
GGAGTCACGTGTAATT

Relative binding free energy, -0.01 kcal/mol:
GGAGTCACGTGCGTAG
TTTTCCACGTGGGCGG
TAAGGCACGTGAGCGG
GTCGGCACGTGTTTGG
GGCAGCACGTGGAGTT

Relative binding free energy, -0.11 kcal/mol:
AGTGCCACGTGTAAGT
GTATACACGTGGGATT
ATTGGCACGTGGTGGG
TTAGCCACGTGTAGTG

Relative binding free energy, 0.24 kcal/mol:
CGTTGCACGTGAAGTG
GATGTCACGTGTTACG
GTTATCACGTGTCTTG
TCGTACACGTGCAGGG

Relative binding free energy, 0.17 kcal/mol:
TTTTCCACGTGATGGG
TTTGTCACGTGCTGGC
ACAGTCACGTGATTGG

Relative binding free energy, -0.08 kcal/mol:
CATTACACGTGGGTTG
ATATGCACGTGTACTT
GAAGGCACGTGGTTTT

Relative binding free energy, 0.3 kcal/mol:
GCGTTCACGTGCTGGG
TGTTTCACGTGTGTAT
GGAGTCACGTGATTGC

Relative binding free energy, 0.28 kcal/mol:
AAATTCACGTGTGTTA
CAGTTCACGTGTCTGG

Relative binding free energy, -0.05 kcal/mol:
TACTACACGTGGGTGT
TTGAACACGTGGTTGG
TGGAGCACGTGGTCCG
GGTCACACGTGGGAGG
GGTGTCACGTGCAGTA
AGATGCACGTGTAGGT

Relative binding free energy, -0.03 kcal/mol:
TTCGACACGTGGCGGT
GTTTCCACGTGGGGAG
GACTGCACGTGGTGGT
TTGGGCACGTGTGGGG
ATTGTCACGTGCTGAT
TAATGCACGTGCGTGT

Relative binding free energy, 0.11 kcal/mol:
GTGTCCACGTGTGGAA
TAAAGCACGTGAGCGG

Relative binding free energy, 0.32 kcal/mol:
TGTCTCACGTGATATT
GACGTCACGTGTGGGC

Relative binding free energy, -0.12 kcal/mol:
AGGGACACGTGGGCGC
GCGGGCACGTGGGCAA

Relative binding free energy, 0.22 kcal/mol:
ATTTACACGTGGTGGC
GGGGTCACGTGTAATA
GATTTCACGTGGGAGA
AGTAACACGTGAGTGT

Relative binding free energy, -0.15 kcal/mol:
ATTGGCACGTGCTAGA
TAAAGCACGTGGTTGA
CATTGCACGTGGGGTG

Relative binding free energy, 0.06 kcal/mol:
TTCAGCACGTGAGGGG
GGTGACACGTGTAGCG
TTGATCACGTGTGCTT
AACTGCACGTGATGGG
AGAGGCACGTGAGTGA

Relative binding free energy, -0.22 kcal/mol:
GCTGGCACGTGGGAAG

Relative binding free energy, 0.15 kcal/mol:
AGGCGCACGTGATGAG
TACGTCACGTGTTTGG
GTAAGCACGTGTGATG
TGCGTCACGTGGAGAT
TTATGCACGTGATGAT

Relative binding free energy, -0.13 kcal/mol:
ACTGGCACGTGGGTGA
CGTTGCACGTGCGTGT

Relative binding free energy, 0.21 kcal/mol:
GTTAGCACGTGAGCTT
GCATTCACGTGGGTGT
ATTTACACGTGTGGGT

Relative binding free energy, 0.18 kcal/mol:
AGTATCACGTGCGATT
GGATTCACGTGGAGTA

Relative binding free energy, 0.42 kcal/mol:
TTTCTCACGTGTTACG
GATAGCACGTGAAGTA

Relative binding free energy, -0.32 kcal/mol:
ATAAGCACGTGGGATG

Relative binding free energy, 0.13 kcal/mol:
ATTCACACGTGGTCGG
ATGCTCACGTGGTAGT

Relative binding free energy, 0.07 kcal/mol:
GTCCGCACGTGTATGG
GATGTCACGTGGCGGT
AGAAACACGTGTGGGT
CAAATCACGTGTTTGT
TCAGGCACGTGTAGGC

Relative binding free energy, -0.25 kcal/mol:
AGTGGCACGTGGAGCT
ACTTGCACGTGGTGCG

Relative binding free energy, 0.33 kcal/mol:
GTGTTCACGTGGTCGG
TGGGCCACGTGAAATT
CGTTTCACGTGTGGGT
ATCGTCACGTGATGTC
GGTTTCACGTGGAGTT

Relative binding free energy, -0.23 kcal/mol:
AATGGCACGTGGGTTG

Relative binding free energy, 0.08 kcal/mol:
ACGGTCACGTGGTGGA
TTGGTCACGTGCGTAT

Relative binding free energy, 0.1 kcal/mol:
ATGGGCACGTGAGCTA
CCGGGCACGTGAGCGG
TTTGACACGTGTTATT
TATTACACGTGTTCAG
AGGTACACGTGATTTA
GTCAACACGTGAGGTG
GGTGTCACGTGTATGC
GAGTGCACGTGTTAAG
CGAGTCACGTGTTTAG

Relative binding free energy, 0.02 kcal/mol:
CGTGACACGTGTTAGG
TGGAACACGTGGAATG
TGTGCCACGTGTGTTT
TGGCGCACGTGGAGAG
TGAGGCACGTGCTCTT
CCGTGCACGTGGTGAT

Relative binding free energy, -0.19 kcal/mol:
GCGCGCACGTGTTGGT
TCCGGCACGTGGTAGT

Relative binding free energy, -0.17 kcal/mol:
AGTGCCACGTGGGAGA

Relative binding free energy, 0.29 kcal/mol:
ATTTTCACGTGTCTGA

Relative binding free energy, -0.29 kcal/mol:
TGTGCCACGTGGGGGT

Relative binding free energy, -0.07 kcal/mol:
CAAGGCACGTGGTTGG
TAGGGCACGTGTAATG
AGTATCACGTGGTCGT
TGGGTCACGTGGGTAC
AGCGGCACGTGGCGGA
TAGTCCACGTGGTGCG
TTCGGCACGTGTATCG
GCCGGCACGTGAGGTG

Relative binding free energy, -0.21 kcal/mol:
TTAAGCACGTGCTGGG
GTAGGCACGTGGCGGA
AAACGCACGTGGGGTT
CGTGGCACGTGGTGCA

Relative binding free energy, -0.18 kcal/mol:
TTTCGCACGTGGTCTG
AGTAGCACGTGCGGGT

Relative binding free energy, -0.14 kcal/mol:
TAGAGCACGTGGGATA
CTAGGCACGTGTTGAT

Relative binding free energy, 0.14 kcal/mol:
GTGGTCACGTGCCGGT
AGTGGCACGTGAGTGA
GATGACACGTGTGTAT
GCGGTCACGTGGACTG
TCGGTCACGTGGTTCT

Relative binding free energy, -0.06 kcal/mol:
GGTGCCACGTGCTGTG
TTGGGCACGTGTTTGC

Relative binding free energy, 0.23 kcal/mol:
GGCCGCACGTGATGGG
GATATCACGTGTAGGT

Relative binding free energy, -0.04 kcal/mol:
AGGAACACGTGTGAGT
GGAGACACGTGGTCGT
GGTTGCACGTGGGATA

Relative binding free energy, -0.26 kcal/mol:
ATTGGCACGTGCTATT

Relative binding free energy, 0.25 kcal/mol:
GTATACACGTGATTGA
CTTAGCACGTGAGATT
TTGATCACGTGTGAAG
GTTATCACGTGGAGCG

Relative binding free energy, -0.24 kcal/mol:
TCTGGCACGTGGCGGT
AAGCGCACGTGCGGGT
TAAGGCACGTGGTTCG
CTTGGCACGTGGTGCG
GGAAGCACGTGGTGCA

Relative binding free energy, -0.02 kcal/mol:
TACGGCACGTGTATGG
CTTTACACGTGGGGAG
CGGCTCACGTGGTGTG
TGTTGCACGTGGTTGT

Relative binding free energy, 0.01 kcal/mol:
GGATACACGTGGGTGA
AATTGCACGTGTCGTG
TCGGTCACGTGGATGG
GGGGGCACGTGATTCT
CGGCTCACGTGGGGCG
GAGTACACGTGGGGGT

Relative binding free energy, 0.05 kcal/mol:
TAGAGCACGTGCAAGT
GGGCACACGTGGCAGG

Relative binding free energy, -0.1 kcal/mol:
CGCGTCACGTGCGTGG
AGATACACGTGTATGT
CTTGACACGTGGGTTT

Relative binding free energy, 0.27 kcal/mol:
TGTTACACGTGAGCTG
GTGGTCACGTGAATTC
GTAGTCACGTGTTTAA
TGCATCACGTGATATT

Relative binding free energy, 0.38 kcal/mol:
GCGATCACGTGAGTGG
TTTTCCACGTGAAGTT
TTCGTCACGTGAAAGT

Relative binding free energy, 0.16 kcal/mol:
AGGGACACGTGATGGG
TGGCTCACGTGTATGG
ATTTACACGTGTATCT
CGCTTCACGTGGAGTG
TTTCACACGTGTTAGA
TTTCTCACGTGGAGGT
TAGAGCACGTGAATAT
TTGAACACGTGTCAGT

Relative binding free energy, 0.09 kcal/mol:
TACGACACGTGTATGT
GTTTACACGTGCGGGA
CAGGGCACGTGTACGG
TTTAACACGTGTCATG

Relative binding free energy, 0.39 kcal/mol:
AGGTTCACGTGAGGCT

Relative binding free energy, -0.16 kcal/mol:
TTAGGCACGTGCATGA
GTGGGCACGTGCTGCG

Relative binding free energy, 0.37 kcal/mol:
GTAATCACGTGAGAGT
TTGAGCACGTGAATTG
TGTTCCACGTGATTAG

Relative binding free energy, -0.28 kcal/mol:
GCGGGCACGTGCGCGG
GGGGGCACGTGGTAAC

Relative binding free energy, 0.2 kcal/mol:
CTGATCACGTGGATGT
CGATACACGTGAGGGG
GTGTTCACGTGTCTTA
GAATGCACGTGATGGT
CAATTCACGTGGGTTT
TGTCACACGTGATTGG

Relative binding free energy, 0.19 kcal/mol:
CAATTCACGTGTGGGG

Relative binding free energy, 0.31 kcal/mol:
ATTTTCACGTGGAGGC
AACTTCACGTGATTGG
ATTTCCACGTGAGTTG
CGGGACACGTGAGAGG

Relative binding free energy, 0.26 kcal/mol:
CTTTTCACGTGATGTG

Relative binding free energy, 0.4 kcal/mol:
ATCTTCACGTGTGCGT
TGGTTCACGTGGAAAT

Relative binding free energy, 0 kcal/mol:
GTGTGCACGTGTTTGA
GGGACCACGTGGTATT
TGGGTCACGTGGGACA
CGTTGCACGTGCAGTT
TTGGTCACGTGGCGCT

Relative binding free energy, 0.41 kcal/mol:
TCAAGCACGTGAAAGG
TGATTCACGTGAGTTG

Relative binding free energy, 0.44 kcal/mol:
GGGTTCACGTGAGTAA

Relative binding free energy, 0.36 kcal/mol:
ATGTGCACGTGAGATC
GGTTTCACGTGAGCGT
GAGTTCACGTGATTGG
